Source: the supplement of paper PMC11417369
± gives the standard deviation of the averaged measurements. Some of the results follow.

These sequences were tested on PfAP2-LT AP2 domain (GST-tagged) (assay: gcPBM binding intensity (ln(normalized median fluorescence intensity)); higher = stronger DNA binding).
Method in brief: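 The highest Masliner-normalised natural-log median intensity across replicate spots of either probe orientation is reported as binding intensity. GST-tagged P. falciparum DNA-binding domains expressed in E. coli were applied for 1 h to an Agilent 4 × 180k array of primer-extended double-stranded 36-bp intergenic genomic probes plus negative controls, and bound protein was detected with Alexa488 anti-GST antibody and scanned at 488 nm.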

“TTATTACGAACTCTGCAACATATATAAATAAATAAA [CACACA_negctrl_site44]” and “TACGTATTCATGTATAGTACTCTTTTTTTTAATAAA [XGTACX_site3299]” are within error of each other in “gcPBM binding intensity (ln)” value: 8.41 ± 0.37 for the first, 8.56 ± 0.3 for the second.

“AAAGATAAAATATATACACACACATAAATACGTACA [CACACA_site8275]” and “TACCTTTTTTATGTTGCACACTGGGATGTTTTCTAA [CACACA_site1653]” are within error of each other in “gcPBM binding intensity (ln)” value: 9.52 ± 0.3 for the first, 9.15 ± 0.39 for the second.

“ATTCATATTTTTCAAGTGCGCATTAAAATATTAACC [GTGCAC_site9741]” and “ATGTCATATATATGTTGTACGAGTTTGTTTATGTAT [XGTACX_site1150]” are within error of each other in “gcPBM binding intensity (ln)” value: 8.88 ± 0.3 for the first, 9.22 ± 0.35 for the second.

“AGTTTACATTAAATCACGCACACAAAAAAAAAAAAA [CACACA_site2419]” and “TTCATTTTATAAAAAGCACACATATAGTTATATGCA [CACACA_site9228]” are within error of each other in “gcPBM binding intensity (ln)” value: 9.1 ± 0.52 for the first, 8.7 ± 0.42 for the second.

“AATGTGCAGAAAAGTGGTACATATGATTGTTAAGAG [XGTACX_site1038]” and “CCATGATTATTAGATTGTACATAACATACAAATTGA [XGTACX_site314]” are within error of each other in “gcPBM binding intensity (ln)” value: 9.1 ± 0.61 for the first, 8.61 ± 0.45 for the second.

“AATATATTTTTTTTTGGTACACAAGCACATCTATAC [XGTACX_site2183]” and “TTTCGATTATGTTTTTGTACGCAATATATTAATTCT [XGTACX_site3634]” are within error of each other in “gcPBM binding intensity (ln)” value: 8.83 ± 0.45 for the first, 8.79 ± 0.46 for the second.

“ATTTTCTTTCTATGCACACGCACGTATTTGCACCCA [CACACA_site3350]” and “GAAATAATAAATTAAAAATCGTTTATAACATTTAAC [CACACA_negctrl_site425]” are within error of each other in “gcPBM binding intensity (ln)” value: 9.38 ± 0.49 for the first, 8.5 ± 0.45 for the second.

“AGTTTAATATAAAATACACACTACTCTTATAAATAT [CACACA_site6803]” and “CTTTTTTTTTGATGTTGTACATATATATTATATAAT [XGTACX_site1321]” are within error of each other in “gcPBM binding intensity (ln)” value: 8.68 ± 0.41 for the first, 8.8 ± 0.47 for the second.

Going from “GTATATAATATTAGTGCACACACAAAAATGTACTAA [CACACA_site8112]” to “TACAAAATAAAAATAATTCTTTCAAAAAATAATAAA [XGTACX_negctrl_site368]”, the “gcPBM binding intensity (ln)” value falls from 9.24 ± 0.33 to 8.29 ± 0.54.

Going from “TGGGAGCACAGACACACACACACACCCATATATATA [CACACA_site335]” to “GTATAAAAGTAATGTAGTACTTATATATTTTTATTT [XGTACX_site8975]”, the “gcPBM binding intensity (ln)” value falls from 9.98 ± 0.36 to 8.59 ± 0.45.

“GGTTGCTTCAGTGAATGTACATAGTGGTAAACAAGC [XGTACX_site166]” and “TCCTTATATTGGCACACACACACAATAAAATGAAAA [CACACA_site4715]” are within error of each other in “gcPBM binding intensity (ln)” value: 9.05 ± 0.52 for the first, 9.62 ± 0.43 for the second.

“TGCACATTTATGTAACGTACAAAATATAATATGTTA [XGTACX_site8255]” and “AGTAATATAATATAAGCACACGTGTATTTATTTAGT [CACACA_site4246]” are within error of each other in “gcPBM binding intensity (ln)” value: 8.74 ± 0.4 for the first, 9.18 ± 0.47 for the second.

“CATTTATTTATATACACACACACAAAAAAAAAAAAA [CACACA_site7279]” and “TGCTATATTATTATCGCACACCGTTGATTCTAAATA [CACACA_site1207]” are within error of each other in “gcPBM binding intensity (ln)” value: 9.3 ± 0.4 for the first, 8.96 ± 0.45 for the second.

“ATAAGTGTATAAAAATGTACGTGTATAAAAATATGT [XGTACX_site8235]” and “AAAAAAAAAAGAAACACACACATATATATATATAAT [CACACA_site5052]” are within error of each other in “gcPBM binding intensity (ln)” value: 9.06 ± 0.43 for the first, 9.44 ± 0.35 for the second.

First: TATATATATTCTTTAAAACACACGTAAAGAAGAATT [CACACA_site2718]
Second: ATATATGTTATTATTTGTACACACACATATATATCC [XGTACX_site7657]
The “gcPBM binding intensity (ln)” value of the first is lower: 8.74 ± 0.33 for the first, 9.63 ± 0.27 for the second.

“ATTTCTAATATTTTTGCACACTAAACAATAAATTTC [CACACA_site3943]” and GAAAATTTATTTTTGGTGCATGTATTTATTTATTTT are within error of each other in “gcPBM binding intensity (ln)” value: 8.94 ± 0.41 for the first, 8.86 ± 0.43 for the second.

“GTAAGCATCAAAAAAGGTACAGAAATTATAAATAAA [XGTACX_site6708]” and “TATTTTTTATTTTTTTGTACATATTTGATAATTAAT [XGTACX_site316]” are within error of each other in “gcPBM binding intensity (ln)” value: 8.84 ± 0.55 for the first, 8.7 ± 0.47 for the second.

“AAATATTTATATATATGTACACATATAATATTTTTA [XGTACX_site2338]” and “TATAACATTTTTTTCAAAATAGCTTTAGAAATAAAG [CACACA_negctrl_site718]” are within error of each other in “gcPBM binding intensity (ln)” value: 8.52 ± 0.42 for the first, 8.09 ± 0.42 for the second.

“ATTTATTTTTTACATTGTACATATTTATTCCTTTTA [XGTACX_site8028]” and “TTTTTTTTTTTTTTTGCATGCAGGTTTTTACCCCTT [TGCATGCA_site381]” are within error of each other in “gcPBM binding intensity (ln)” value: 9.02 ± 0.56 for the first, 8.98 ± 0.53 for the second.

“TTATTTTCAAAATGTTGTACACACAAAAAAAAAAAA [XGTACX_site3151]” and “TTTTTTTTCTTCAAGCGTACTTATTTGTAGAAAAAA [XGTACX_site1728]” are within error of each other in “gcPBM binding intensity (ln)” value: 8.76 ± 0.43 for the first, 8.38 ± 0.3 for the second.

“TATGTATATATATAAAGTACGCAAATTTATAATAAG [XGTACX_site8744]” and “ATATGTGGAAATAGAGCACACATATATATAATATAT [CACACA_site8194]” are within error of each other in “gcPBM binding intensity (ln)” value: 8.8 ± 0.45 for the first, 9.39 ± 0.6 for the second.

First: TTTTGTTTTAAAAGTACACACTTTTAATTAGATTTC [CACACA_site4788]
Second: AAAATACACAACATATATATATATATATATATATAT [XGTACX_negctrl_site21]
The “gcPBM binding intensity (ln)” value of the first is lower: 8.61 ± 0.44 for the first, 9.91 ± 0.11 for the second.

Going from “TGATCAATGGATTTAACACACAAAAAAAAAAAAAAA [CACACA_site3845]” to “TACATGAATAAACTTACACACACCCATGCATACATA [CACACA_site97]”, the “gcPBM binding intensity (ln)” value rises from 8.7 ± 0.48 to 9.61 ± 0.19.

“TGAAAAGGAAAATTTTGTACATATACATCAAGGATA [XGTACX_site656]” and “AAAAAAAAGAATTTACGTACTTATTATTTATATTTT [XGTACX_site5701]” are within error of each other in “gcPBM binding intensity (ln)” value: 8.62 ± 0.38 for the first, 8.69 ± 0.4 for the second.

“ACTTTTTATTTTTTACTATATATATATATATATATG [TGCATGCA_negctrl_site463]” and “ACTAACATATATTCAACACACATATACCTTCAACCC [CACACA_site3011]” are within error of each other in “gcPBM binding intensity (ln)” value: 9.41 ± 0.35 for the first, 9.36 ± 0.32 for the second.

First: TATATATATATATACACACACACATATATATATATA [CACACA_site774]
Second: TTTTACAAAGTATGATGTACAAGTATATATAAATAT [XGTACX_site2072]
The “gcPBM binding intensity (ln)” value of the first is higher: 9.84 ± 0.23 for the first, 8.58 ± 0.45 for the second.

CCCATTTAATATTGAGTGCATTTAAATAAATGTATT and “TCCCTTAAAATGATATGTACATAAAAATAAAAAAAA [XGTACX_site836]” are within error of each other in “gcPBM binding intensity (ln)” value: 8.62 ± 0.37 for the first, 8.54 ± 0.57 for the second.

“TATAAATTTAAAATGACACACACTAAAGTTATTTAA [CACACA_site6700]” and “AACATAAGTAAGAATACATGCGGAAATTATATAGAA [TGCATGCA_site112]” are within error of each other in “gcPBM binding intensity (ln)” value: 8.73 ± 0.42 for the first, 9.03 ± 0.38 for the second.

For “TAAATATTATAAATGATACACACTTAAAATACTCAC [CACACA_site2710]”, the “gcPBM binding intensity (ln)” value was 8.78 ± 0.38.
